The whole screen tested about 310,000 compounds, of which about 14,000 (4.5%) showed an effect of 50% or more. Effects have a minus sign here. The list shows a part of the results.
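Note: peak tail current of the secondary pulse compared with the same well before compound.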

human ether-à-go-go-related gene (hERG) potassium channel, sequence (Q12809 whole entry, looked up): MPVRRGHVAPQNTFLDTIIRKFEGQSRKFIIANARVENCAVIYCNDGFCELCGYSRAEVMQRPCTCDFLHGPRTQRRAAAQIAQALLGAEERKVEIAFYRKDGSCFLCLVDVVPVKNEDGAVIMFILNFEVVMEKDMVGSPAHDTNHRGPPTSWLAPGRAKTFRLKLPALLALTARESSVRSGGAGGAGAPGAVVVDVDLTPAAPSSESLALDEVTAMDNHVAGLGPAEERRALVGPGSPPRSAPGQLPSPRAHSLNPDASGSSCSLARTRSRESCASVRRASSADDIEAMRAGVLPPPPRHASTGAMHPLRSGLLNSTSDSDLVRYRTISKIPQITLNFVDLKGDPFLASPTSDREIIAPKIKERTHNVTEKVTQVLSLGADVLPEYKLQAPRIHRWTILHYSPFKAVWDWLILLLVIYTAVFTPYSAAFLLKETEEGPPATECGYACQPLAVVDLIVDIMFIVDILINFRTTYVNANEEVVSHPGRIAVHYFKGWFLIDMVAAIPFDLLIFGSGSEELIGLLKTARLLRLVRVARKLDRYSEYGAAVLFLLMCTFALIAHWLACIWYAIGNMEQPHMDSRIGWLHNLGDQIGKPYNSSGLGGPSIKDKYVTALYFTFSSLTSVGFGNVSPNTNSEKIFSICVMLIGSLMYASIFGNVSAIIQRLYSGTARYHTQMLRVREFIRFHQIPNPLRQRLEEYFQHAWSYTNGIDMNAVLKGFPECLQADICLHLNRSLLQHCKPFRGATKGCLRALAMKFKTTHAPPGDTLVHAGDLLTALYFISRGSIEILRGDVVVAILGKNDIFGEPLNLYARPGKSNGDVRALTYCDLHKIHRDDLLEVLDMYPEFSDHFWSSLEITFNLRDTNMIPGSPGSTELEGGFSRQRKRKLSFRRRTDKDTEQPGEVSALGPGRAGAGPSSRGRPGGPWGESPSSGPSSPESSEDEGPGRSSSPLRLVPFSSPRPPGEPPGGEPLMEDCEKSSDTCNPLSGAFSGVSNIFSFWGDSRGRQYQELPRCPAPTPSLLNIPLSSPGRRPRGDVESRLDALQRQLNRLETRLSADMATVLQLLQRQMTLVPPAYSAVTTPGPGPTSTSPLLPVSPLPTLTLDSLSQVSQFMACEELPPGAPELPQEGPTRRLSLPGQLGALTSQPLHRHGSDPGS

The assay addresses human ether-à-go-go-related gene (hERG) potassium channel (human, UniProt Q12809). The experiment in a line: primary screen, population patch clamp on CHO cells stably expressing hERG.
On to `COc1ccc(C(=O)C2CCCN(C/C=C/c3ccccc3OC)C2)c(OC)c1` (stereo not shown), for which the “hERG current change (%, negative = inhibition) at 10uM” value is given as -77.5%.
Under `O=C(NCSc1ccnc(SCNC(=O)c2ccc(F)cc2)n1)c1ccc(F)cc1` stands 22.7%; under `O=C(COc1ccccc1Br)N1CCN(c2ccccc2)CC1`, -5.87%; under `CC(=O)N/C(=C/c1ccc2c(c1)OCO2)C(=O)NCCCO`, 23.3%.
Consider `O=C(Nc1ccccc1N1CCOCC1)c1ccc(Cl)nc1`, for which the “hERG current change (%, negative = inhibition) at 10uM” value is 5.54%.
As to `CCSC1=NC(C)(C)C=C(/C=C/c2ccc(Cl)cc2Cl)N1`, the “hERG current change (%, negative = inhibition) at 10uM” value is reported as -7.72%.
Turning to `C=CCNC(=S)Nc1cc(S(=O)(=O)N2CCOCC2)ccc1-n1cncn1`, the “hERG current change (%, negative = inhibition) at 10uM” value is given as 10.3%.
On to `CC(=O)Nc1c(I)c(NC(C)=O)c(I)c(C(=O)[O-])c1I.[Na+]`, for which the “hERG current change (%, negative = inhibition) at 10uM” value was found to be 19.3%.
Under `CCCCn1c(C)cc2cc(O)ccc21` stands -16.8%; under `COc1ccc(C(CCN(Cc2ccc(OC)c(OC)c2)C(=O)CCl)c2ccccc2)cc1` (stereo not shown), -0.4%; under `CCC1(c2ccccc2)NC(=O)N(CC(=O)Nc2ccc(OC)nc2)C1=O` (stereo not shown), 2.19%.
As to `CCC(C)NCCOc1ccc(Br)cc1.O=C(O)C(=O)O` (stereo not shown), the “hERG current change (%, negative = inhibition) at 10uM” value is given as -19.6%.
Under `CCCc1cc(=O)oc2c(CN3CCN(C)CC3)c(O)ccc12` stands -26.8%; under `O=C1CN=C(c2ccccc2)c2cc(Br)ccc2N1Cc1cc(=O)n2ccccc2n1`, -51.7%; under `CCOc1ccc(NC(=O)C2CCCN(S(=O)(=O)c3ccc4c(c3)CCCN4C(C)=O)C2)cc1` (stereo not shown), -15.4%.
As for `CCOc1ccc(OCC)c(NC(=O)C(NS(=O)(=O)c2ccc3c(c2)oc(=O)n3C)C(C)C)c1` (stereo not shown), the “hERG current change (%, negative = inhibition) at 10uM” value is recorded as 4.1%.
Under `CCC(C)Sc1ccc(-c2nc3ccc(C)cn3c2NC2CCCCC2)cc1.O=C(O)C(F)(F)F` (stereo not shown) stands 2.54%.
Under `COc1cc(NC(=O)C2CCN(S(=O)(=O)c3ccc(N4CCCC4=O)cc3)CC2)cc(OC)c1` stands -8.42%.
Under `Cc1ccc(OCc2nnc(SCc3nc4ccccc4[nH]3)n2Cc2ccco2)cc1` stands -25.5%; under `C=CCN1C(=O)c2ccc(C(=O)N(CCC)CC(=O)Nc3ccccc3C)cc2C1=O`, 0.801%.
Take `Cc1ccccc1C(=O)NNC(=O)c1cccc(Br)c1`: the “hERG current change (%, negative = inhibition) at 10uM” value is listed as 12.8%.
Under `Cc1ccc(-n2ncc3c2CC(C)(C)CC3NC(=O)CCc2ccc(=O)[nH]n2)cc1` (stereo not shown) stands -11.2%; under `Cc1nnc(NC(=O)CSc2nccn2Cc2ccc(F)cc2)s1`, -6.66%.
Under `CCCn1c(SCC(=O)Nc2nccs2)nnc1-c1cccnc1` stands -0.265%.
For `CCOC(=O)c1[nH]c(C)c(CCC(=O)[O-])c1C.[Na+]`, the “hERG current change (%, negative = inhibition) at 10uM” value is reported as 11.1%.
Under `O=C1OC(NC(=O)c2ccccc2)C(N2CCOCC2)=C1Cl` (stereo not shown) stands 8.13%.
Under `COc1ccc(OCCn2cncn2)cc1` stands 12.6%; under `C=CCNCC(O)COc1ccc(C(C)=O)cc1OC.O=C(O)C(=O)O` (stereo not shown), -6.16%; under `CC(C)(C)c1ccc(C(=O)N2CCN(CCNC(=O)C(=O)NCc3ccc(Cl)cc3)CC2)cc1`, -41.1%.
Under `C/C(=N\NC(=O)c1nnn(-c2nonc2N)c1COc1ccc(F)cc1)c1ccc(Cl)cc1` stands 17.3%; under `COc1cc(C(=O)Nc2cc(Cl)ccc2-n2cncn2)ccc1OC(F)F`, 1.56%; under `CCOc1ccc(NC(=O)CCn2cccc2)cc1`, 15.1%.
`CCC(=O)Nc1cccc(-c2nnc(-c3cccc(NC(=O)CC)c3)o2)c1`: the “hERG current change (%, negative = inhibition) at 10uM” value came out at 7.83%.
Under `CC/C(=N\NC(=O)c1ccccc1)c1c(O)n(C2CCCCC2)c(=O)[nH]c1=O` stands 12.3%.
Consider `COC(=O)Cn1c(=NC(=O)C2COc3ccccc3O2)sc2cc(S(N)(=O)=O)ccc21` (stereo not shown), for which the “hERG current change (%, negative = inhibition) at 10uM” value came to 13.3%.
Under `Cc1onc(-c2c(Cl)cccc2Cl)c1C(N)=O` stands 10.4%.
Under `Nc1ccc(CNc2ncn[nH]2)cc1` stands 0.548%; under `COc1ccc(Cl)cc1N1C(=O)[C@@H]2C(c3cccc(OC)c3OC)=NO[C@@H]2C1=O`, 2.74%.
As to `CC(C)(C)c1cc(N)n(-c2ccc(C(=O)O)cc2)n1`, the “hERG current change (%, negative = inhibition) at 10uM” value amounted to 17.6%.
Under `S=c1[nH]nc(NCCCN2CCOCC2)s1` stands 7.4%.
`CCOc1ccc(-n2c(=O)[nH]cc(C(=O)N3CCc4ccccc43)c2=O)cc1`: the “hERG current change (%, negative = inhibition) at 10uM” value is listed as -2.98%.
`Cc1ccc(CC2S/C(=N/N=C/c3ccco3)NC2=O)cc1` (stereo not shown): the “hERG current change (%, negative = inhibition) at 10uM” value is 4.68%.
Under `COc1cccc(NC(=O)c2ccc(CN3CCc4ccccc4C3)cc2)c1` stands -35.2%.
Under `Cc1cccc(-c2nc(C#N)c(NCC3CCCO3)o2)c1` (stereo not shown) stands -0.401%.
Under `CCCS(=O)(=O)c1c(S(=O)(=O)CCC)c2c(N)cccn2c1C(=O)c1ccc(OC)cc1` stands -13.9%; under `CC1CCCC(NC(=O)CN2CCN(Cc3ccc(Cl)cc3)C2=O)C1C` (stereo not shown), -3.26%; under `CC(=O)c1ccc(NC(=O)C2CCN(S(=O)(=O)c3cccc4nonc34)CC2)cc1`, 10.6%.
Regarding `Cc1ccc(S(=O)(=O)NCCc2c[nH]c3ccccc23)cc1`, the “hERG current change (%, negative = inhibition) at 10uM” value is 14.6%.
Under `CN(Cc1cccc2ncccc12)C(=O)CC1C(=O)NCCN1Cc1ccc(F)cc1` (stereo not shown) stands 2.13%; under `COC(=O)c1cn(CC(=O)NCc2ccco2)c2ccccc12`, -1.02%; under `O=C(Nn1cnnc1)c1ccc(Cl)cc1[N+](=O)[O-]`, 23.7%.
Under `O=C(CN(C(=O)c1cccc([N+](=O)[O-])c1)C1CCCCC1)Nc1ccc(Cl)c([N+](=O)[O-])c1` stands 0.211%.
Under `CCOC(=O)c1nnn(CC(=O)Nc2cccc(OC)c2)c1C(=O)OCC` stands -15.3%; under `CCOc1ccc2nc(N3CCCC(C(=O)NCC4CCCO4)C3)sc2c1` (stereo not shown), -19.1%; under `CCOC(=O)c1c(S(=O)(=O)N2CCCC(C(=O)Nc3ccc(C)cn3)C2)c(C)n(C)c1C` (stereo not shown), 19.7%.

The record behind these values is paper PMC4336329 (PLoS ONE, 2015).
